Results as given in publication PMC4336329 (PLoS ONE, 2015).
Hit rate of the full screen: of about 310,000 compounds, about 2,200 (0.71%) showed an effect of 50% or more. The effect is printed as a negative number. This is one part of the list.

The compounds below were run against human ether-à-go-go-related gene (hERG) potassium channel (human, UniProt Q12809) (assay: primary screen, population patch clamp on CHO cells stably expressing hERG).
human ether-à-go-go-related gene (hERG) potassium channel, sequence (Q12809 whole entry, looked up): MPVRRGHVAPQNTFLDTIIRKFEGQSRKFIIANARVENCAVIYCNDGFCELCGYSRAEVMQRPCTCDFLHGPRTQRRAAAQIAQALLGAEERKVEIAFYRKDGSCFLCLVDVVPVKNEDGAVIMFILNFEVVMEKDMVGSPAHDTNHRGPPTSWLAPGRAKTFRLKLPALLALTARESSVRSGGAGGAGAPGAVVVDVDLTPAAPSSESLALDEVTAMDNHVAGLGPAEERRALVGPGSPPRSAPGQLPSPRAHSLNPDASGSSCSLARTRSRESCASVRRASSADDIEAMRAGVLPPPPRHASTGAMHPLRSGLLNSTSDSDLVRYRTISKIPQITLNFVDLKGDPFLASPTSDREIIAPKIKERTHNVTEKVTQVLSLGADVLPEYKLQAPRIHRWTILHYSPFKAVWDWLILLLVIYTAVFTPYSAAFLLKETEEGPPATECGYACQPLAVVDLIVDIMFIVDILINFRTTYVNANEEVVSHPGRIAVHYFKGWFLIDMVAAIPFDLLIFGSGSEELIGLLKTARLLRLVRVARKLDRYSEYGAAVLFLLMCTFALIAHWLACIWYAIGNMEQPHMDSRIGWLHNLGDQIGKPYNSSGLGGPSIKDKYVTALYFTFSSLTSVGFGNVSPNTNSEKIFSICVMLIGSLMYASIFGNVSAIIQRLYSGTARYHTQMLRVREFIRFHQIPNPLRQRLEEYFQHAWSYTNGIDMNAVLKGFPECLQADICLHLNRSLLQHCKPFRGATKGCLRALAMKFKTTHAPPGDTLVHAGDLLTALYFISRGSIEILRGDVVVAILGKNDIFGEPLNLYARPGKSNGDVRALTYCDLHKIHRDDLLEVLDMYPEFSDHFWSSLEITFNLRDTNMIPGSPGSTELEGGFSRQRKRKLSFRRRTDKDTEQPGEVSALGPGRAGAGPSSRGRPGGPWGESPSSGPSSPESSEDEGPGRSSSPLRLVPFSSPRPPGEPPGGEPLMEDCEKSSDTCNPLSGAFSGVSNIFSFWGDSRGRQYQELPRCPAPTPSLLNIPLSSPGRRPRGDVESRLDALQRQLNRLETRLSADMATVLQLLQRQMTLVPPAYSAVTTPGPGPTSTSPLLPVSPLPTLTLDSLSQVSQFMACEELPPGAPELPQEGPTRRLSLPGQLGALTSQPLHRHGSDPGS

| Compound | hERG current change (%, negative = inhibition) at 1uM [%] |
| --- | --- |
| Cc1nc2c(sc(=S)n2Cc2ccco2)c(=O)n1CC(=O)Nc1ccccc1F | 5.04 |
| CC(=O)N1c2ccccc2NC2=C(C(=O)CC(C)(C)C2)C1c1cccn1C (stereo not drawn) | 7.14 |
| Cc1ccc(S(=O)(=O)Nc2cc3c(C(=O)O)c(C)oc3c3ccccc23)c(C)c1 | 18.8 |
| Cc1cccc(OCC(=O)OCC(=O)N2CCCc3ccccc32)c1C | 11.4 |
| COc1ccc(N2CC(C(=O)N[C@@H](C)C(=O)N[C@H](CO)c3ccccc3)CC2=O)cc1 (stereo partly drawn) | 13.1 |
| CC(C)c1ccccc1N=C1SCCCN1C(=O)c1cccc(N2C(=O)CCC2=O)c1 | 10.5 |
| c1ccc(CC2CCN(c3nnnn3-c3ccccc3)CC2)cc1 | 6 |
| Cc1sc(C(=O)Nc2ccc3ccccc3c2)cc1CC(=O)O | 12.2 |
| CCCCC(=O)Nc1ccc(NCc2ccc(C)s2)cc1 | 4.76 |
| CCC(=O)N1CCN(c2cc(C)ccc2C)CC1 | 7.91 |
| Nc1ncccc1OCc1ccc(Cl)c(Cl)c1 | 6.37 |
| Cc1ccc(OCC(=O)N/N=C/c2ccncc2)cc1C | 20 |
| CCCCCCC1CC(CCC(=O)Nc2ccc([N+](=O)[O-])cc2)C(=O)O1 (stereo not drawn) | 11.4 |
| CCCSc1nsc(NC(=O)CCC)n1 | 2.3 |
| COc1cc(N/C(N)=N/c2nc(C)cc(C)n2)c(OC)cc1Cl | -17.2 |
| O=C(Cc1ccc(NC2=NC3CS(=O)(=O)CC3S2)cc1)NCCc1ccccc1 (stereo not drawn) | 7.09 |
| COC(=O)[C@@H](NC(=O)c1ccccc1OC1CCN(S(C)(=O)=O)CC1)C(C)C | 10.5 |
| CCc1nnc(NC(=O)Cn2nc(-c3ccccc3OC)ccc2=O)s1 | 6.78 |
| COc1cc(NC(=O)COn2nnc3ccc(S(C)(=O)=O)cc32)cc(OC)c1 | 10.5 |
| Cc1ccc2c(=O)cc(C(=O)Nc3ccc(S(=O)(=O)Nc4onc(C)c4C)cc3)oc2c1 | 19.6 |
| CN(C)c1nccc(N(Cc2ccccc2)Cc2ccccc2)c1C#N | -38.8 |
| CC(=O)c1cc(C#N)c(N(C)Cc2ccccc2)nc1C | 4.62 |
| CCCC(CCC)C(=O)NNc1cc(=O)c2c(=O)n(C)c(=O)n(C)c2[nH]1 | 18.1 |

| Compound | hERG current change (%, negative = inhibition) at 1uM [%] |
| --- | --- |
| COc1ccc(OCc2cn3c(C)cc(C)nc3n2)cc1 | 4.8 |
| CN(C)S(=O)(=O)c1cccc(-c2nnc(SCc3cc(Cl)cc4c3OCOC4)n2N)c1 | 12.6 |
| CCCCN(C)CCNC(=O)c1cc2c(-c3cccc(OC)c3)nn(C)c2s1 | 8.34 |
| C[C@@H]1NS(=O)(=O)[C@H]2C[C@@H]3C=C[C@]2(O3)[C@H]1OC(=O)c1ccc(C(C)(C)C)cc1 | 10.3 |
| CCN(CC)c1c([N+](=O)[O-])c(=O)n(C)c2ccccc12 | 1.95 |
| O=C(CCN1C(=O)c2ccccc2C1=O)NCc1ccc(F)cc1 | 9.91 |
| O=C1C=C(c2ccc3c(c2)OCO3)CCC1 | 12.3 |
| Cn1c(=O)n(C)c2cc(S(=O)(=O)Nc3ccccc3)ccc21 | 13 |
| COc1ccc(-c2nc(CS(=O)CC(=O)NCCCN3CCCC3)c(C)o2)cc1OC (stereo not drawn) | -2.17 |
| CCOc1cc(/C=N/n2cnnc2)ccc1OCC(=O)Nc1ccccc1OC | 14.4 |
| COC(=O)c1ccccc1NC(=O)NC1CC1 | 13.7 |
| COc1cccc(C(=O)N2CCN=C2SC)c1 | 13.2 |
| Cc1cc(C(=O)Nn2c(-c3ccncc3)nc3ccccc3c2=O)ccc1[N+](=O)[O-] | 13.5 |
| CCc1nc(SCC(N)=O)c2c(=O)n(C)c(=O)n(C)c2n1 | 13.9 |
| CCC(C)NC(=O)CN(C1CCCCC1)S(C)(=O)=O (stereo not drawn) | 7.49 |
| O=C(Nc1ccccn1)C1CCCN(c2ncnc3c2nc2n3CCCCC2)C1 (stereo not drawn) | 4.27 |
| O=C1CC(N2CCOCC2)C(=O)N1CCN1C(=O)CC(N2CCOCC2)C1=O (stereo not drawn) | 14 |
| Cc1ccc(-n2nc3c(=O)n(CCCC(=O)NCc4ccccc4C)nc(C)c3c2C)cc1 | 14.4 |
| COc1ccc(CN(C)CC2CCCN(CCc3ccc(Cl)cc3)C2)cc1OC (stereo not drawn) | -78.2 |
| Cc1noc(C)c1CN(C(=S)NC1CC2CCC1C2)c1ccccc1 (stereo not drawn) | 4.11 |
| CCN(CCCNC(=O)CCCOc1cc(=O)n(C)c2ccccc12)Cc1ccccc1 | 7.53 |
| Cl.O=C(O)c1ccc(OCCn2ccnc2)cc1 | 14.8 |
| N#Cc1ncc(Cl)c2ccccc12 | 9.45 |

| Compound | hERG current change (%, negative = inhibition) at 1uM [%] |
| --- | --- |
| Cc1ccc(C)c(NC(=O)CSc2nnc(NC(=O)C3CC3)s2)c1 | 15.9 |
| COc1ccc(OC)c(S(=O)(=O)NC2CCSc3ccccc32)c1 (stereo not drawn) | 15.4 |
| CC(=O)Nc1ccc(NC(=O)Nc2ccccc2C)cc1 | 10.6 |
| O=C(CSc1ccc2c(c1)OCCO2)Nc1ncc(Cl)cc1Cl | -5.44 |
| COc1ccccc1CNS(=O)(=O)c1ccc2c(c1)N(C(C)=O)CCO2 | 16.7 |
| O=C(O)CC(NC(=S)NCc1ccccc1)C(=O)O (stereo not drawn) | -7.52 |
| N#CC1=C(N)C(C#N)(C#N)C2(CCC3(CC2)OCCO3)C2CC3(CC=C12)OCCO3 (stereo not drawn) | -5.39 |
| CN1C(=O)C(Cc2nc3ccccc3c(=O)n2-c2ccccc2)c2ccccc21 (stereo not drawn) | -4.99 |
| O=C(Nc1ccc(S(=O)(=O)C(F)F)cc1)c1cccc(S(=O)(=O)N2CCOCC2)c1 | 1.63 |
| O=C1CCN(CCc2ccccc2)CCN1[C@H](CO)Cc1ccccc1 | 7.43 |
| O=C(O)CCC(=O)N1N=C(c2ccccc2)CC1c1ccc(Br)cc1 (stereo not drawn) | 14.5 |
| O=C1CN(C(=O)CSc2nnnn2C2CC2)c2ccccc2N1 | 6.49 |
| C1=CCC(CN2CCN(C3CCCCCC3)CC2)CC1.O=C(O)C(=O)O (stereo not drawn) | -7.17 |
| CCc1ccc(C(=O)CSc2nnc(C3CC3)n2C2CC2)cc1 | -0.707 |
| CCNc1ccc(C(=O)N/N=C/c2c(C)nn(-c3ccccc3)c2N2CCCC2)cc1[N+](=O)[O-] | 17.2 |
| Cc1cc(-c2onc(C)c2C(=O)O)no1 | 8.64 |
| Cc1ccc(-c2csc3nc[nH]c(=O)c23)cc1C | 18.1 |
| COc1cc(CC(=O)O)ccc1OCc1ccccc1 | 9.17 |
| Nc1ccc(-c2sc(N)nc2-c2ccccc2)cc1 | 5.15 |
| CC(=O)Nc1c2c(nn1-c1ccccc1)CSC2 | 13.5 |
| CC(=O)Nc1ccc(-n2nnnc2SCC(=O)NCc2cccs2)cc1 | 2.9 |
| O=C(N/N=C/c1ccc(OCCCF)cc1)c1cc(OCC(F)(F)F)ccc1OCC(F)(F)F | 10.4 |
| CC(C)(C)n1nc2c(c1NC(=O)Cc1ccc(F)cc1)CSC2 | 7.49 |

| Compound | hERG current change (%, negative = inhibition) at 1uM [%] |
| --- | --- |
| COc1ccc(-c2cn3cccnc3n2)cc1NC(=O)c1cc(OC)c(OC)c(OC)c1 | 1.63 |
| CS(=O)(=O)N1CCCC(C(=O)NCCCN2CCc3ccccc3C2)C1 (stereo not drawn) | 8.29 |
| COc1ccc(-c2nc(C(N)=O)c3[nH]c(=O)n(-c4cccc(C)c4)c3n2)c(OC)c1 | 9.19 |
| CC(C)(Oc1ccc(Br)cc1)C(=O)N1CCc2ccccc21 | 13 |
| CC(=O)c1oc2ccccc2c1NC(=O)CCCN1C(=O)c2ccccc2C1=O | 14.2 |
| Nc1nc(Cl)cc(Oc2ccc(Cl)cc2)n1 | 10.1 |
| CC(=O)Nc1ccc(S(=O)(=O)NNC(=O)c2ccc(C)cc2)cc1 | -11.2 |
| CCc1nnc(NC(=O)/C=C/c2ccco2)s1 | 17.9 |
| Cc1c(NC(=O)C(C)c2ccc(CC(C)C)cc2)c(=O)n(-c2ccccc2)n1C (stereo not drawn) | 9.19 |
| O=S(=O)(c1cccc(S(=O)(=O)N2CCC(n3nnc4ccccc43)CC2)c1)N1CCCCC1 | -13.6 |
| COc1ccc(CN2CCN(Cc3cccc(Oc4ccccc4)c3)CC2)c(OC)c1OC.O=C(O)C(=O)O | 14.8 |
| Cc1ccc(S(=O)(=O)N2CCN(C(=O)c3c(-c4ccccc4)noc3C)CC2)cc1C | 3.34 |
| CC(C)(C)C(=O)/C=C(\N)c1ccncc1 | 6.39 |
| O=C1CSC(c2ccc([N+](=O)[O-])cc2)N1Cc1ccccc1 (stereo not drawn) | -6.48 |
| CCc1ccc(NC(=O)Cn2ncc3c4ccccc4n(C)c3c2=O)cc1 | 10.7 |
| C#CC1(O)CC(C)NCC1(C)CCC#N (stereo not drawn) | 5.8 |
| O=C1CCCCN1CCC(=O)N1CCCC(N2CCN(c3cccc(Cl)c3)CC2)C1 (stereo not drawn) | 3.35 |
| Cn1c2ccccc2c2n[nH]c(=O)nc21 | 8.6 |
| Cc1sc2ncn(CC(=O)Nc3cccc(S(N)(=O)=O)c3)c(=O)c2c1-c1ccccc1 | 12.2 |
| Cc1ccc(C)c(-n2nnnc2Sc2nnnn2-c2ccccc2)c1 | 4.33 |
| O=C(O)C1CCCN1C(=O)NC1CCCCC1 (stereo not drawn) | 17.1 |
